Results from ChEMBL document CHEMBL4888484, “Replenishing the malaria drug discovery pipeline: Screening and hit evaluation of the MMV Hit Generation Library 1 (HGL1) against asexual blood stage Plasmodium falciparum ,using a nano luciferase reporter read-out” (2022).
Among all 150,000 compounds or so, about 540 (0.36%) showed an effect of 50% or more. The list shows a part of the results.

Test system: Plasmodium falciparum
Test: Primary screen in NF54 nanoGlo assay, in single point, at 2uM, 72h; a lower Z score goes with more inhibition
Assay type: functional, Erythrocyte
Conditions: timepoint 72 hour

SMILES | % Inhibition [%] | Z score
Cc1cc(C(=O)Nc2ccc3ccccc3c2)co1 | 37 | -4.78
Cc1ncccc1CNCCn1cccn1 | -9 | 0.91
C[C@H](Nc1ccn(CC(F)F)n1)C1CCN(C)CC1 | -5 | 0.81
CC(C)[C@H]1CC[C@H](C(=O)N[C@@H](Cc2ccccc2)C(=O)Nc2cnn(C)c2)CC1 | -10 | 1.26
CCN(CC)CCn1cnc2c1c(=O)[nH]c(=O)n2Cc1ccccc1 | -1 | 0.09
FC1(F)CC12CCC(Nc1nccn3cncc13)CC2 (stereo not drawn) | -5 | 0.74
Cc1cncc(C(=O)N2CCCC[C@@]2(C)c2noc(C3CC3)n2)c1 | -15 | 1.98
CN(c1ccn(C)n1)S(=O)(=O)CC1(C(=O)OC(C)(C)C)COC1 | -7 | 1.31
Cc1c(C(=O)NCCc2ccc(Cl)cc2)cccc1-n1cnc2cccnc21 | -5 | 0.76
N#Cc1cccnc1N1CCC[C@H](CN2CCCCCC2)C1 | -3 | 0.28
O=C1CN(Cc2ccccc2)C(=O)[C@H](Cc2ccc(O)cc2)N1 | -7 | 1.38
CC(C)(C#N)C(=O)NCC1(c2ccccc2)CC1 | -2 | 0.19
CC(C)NC(=O)NC[C@H]1Cn2c(-c3ccc(Cl)cc3)cnc2CO1 | 29 | -3.28
O=C(NCCn1ccnc1-c1ccc2c(c1)OCO2)c1cccnc1 | 10 | -1.94
CC1CCN(C(=O)c2ccc(NCCCS(C)(=O)=O)nc2)CC1 | -14 | 2.31
C[C@@]1(C(=O)NC2CCCC2)Cn2c(ccc2-c2ccco2)C(=O)N1Cc1ccco1 | -12 | 1.11
Cc1nc(-c2cc(S(=O)(=O)N(C)C3CCCCC3)c(C)n2C)sc1C(=O)N1CCOCC1 | -7 | 0.8
Cc1cc(Cl)ccc1OCC(=O)Nc1[nH]ncc1-c1ccc2c(c1)OCO2 | -6 | 1.03
COc1ccc(C(=O)N2CCCN(CC3CC3)[C@H](C(C)C)C2)c(O)c1 | -10 | 1.22
COc1ccc(OCC(F)(F)C(F)F)c(C(=O)N(C)C)c1 | 11 | -1.57
CCC1(CC)O[C@@H](c2ccc(OC)c(OC)c2OC)Nc2ccccc21 | 10 | -1.23
C[C@H](Oc1ccc(N(C)C(N)=O)cc1)c1cccc(C#N)c1 | -7 | 0.95
COc1ccc2c(c1)CN(C(=O)C1(OC)CS(=O)(=O)C1)CCO2 | -4 | 0.72
CCS(=O)(=O)Oc1cccc(CN(CC(C)C)C(=O)CC(C)C)c1 | 0 | -0.07
Cc1ncccc1C(=O)N1CCC2(CCc3nn(Cc4ccccc4)c(=O)n3CC2)CC1 | 10 | -1.15
CC(C)CC(=O)Nc1ccc(-n2nc(OCc3ccc(F)cc3)nc2-c2ccco2)cc1 | 8 | -0.71
N#CC1(C(=O)N2CCCO2)CCCCC1 | 3 | -0.38

SMILES | % Inhibition [%] | Z score
O=C(N[C@@H]1[C@H]2CCO[C@H]2[C@H]1Cc1ccccc1)c1cccc(=O)[nH]1 | -4 | 0.6
O=C1CCN(C(=O)c2ccc(C(=O)Nc3ccccc3)cc2)CCN1 | -7 | 1.23
O=c1c2ccccc2ncn1C[C@H]1CC[C@H](C(=O)NC2CCCCCCC2)CC1 | -12 | 1.48
CC(C)c1scnc1-c1nc(-c2cccc(N3CCN(C)CC3)n2)no1 | 3 | -0.32
COCC1(CNS(=O)(=O)c2cc(C)cs2)CCCC1 | -10 | 1.26
Cc1noc(C)c1C(=O)N1CCC[C@H]1c1nc(-c2ccccc2)no1 | 5 | -0.71
CC(C)Cc1noc(CN(C)C(=O)CCn2cncn2)n1 | 6 | -1.13
O=C(Nc1cccc(C(F)(F)F)c1)N1C[C@H]2CC[C@@H](C1)NC2 | -10 | 1.22
O=C(Cn1cnc2ccccc21)N1CCN(c2cc(N3CCOCC3)ncn2)CC1 | -16 | 1.37
CN(CC(=O)N[C@H]1CC[C@H](Oc2ncccn2)CC1)S(C)(=O)=O | -13 | 1.51
CCOCCN(C)C(=O)NCc1cc(F)cc(Br)c1 | 2 | -0.19
c1ccc(N2CCOCC2)c(CCNc2nccn3cnnc23)c1 | -9 | 1.62
CCc1nc(N(CCC(=O)Nc2cccc(C(F)(F)F)c2)CC(C)C)c2ccc(Cl)cc2n1 | -8 | 0.75
COCCN(CC(N)=O)C(=O)c1ccc(Cl)cc1F | -10 | 1.31
Cc1csc(NC(=O)C(=O)c2ccc3c(c2)CCC3)n1 | -11 | 2.38
COCCCn1c(C)cc(=O)c(C(=O)O)c1CC1CCCC1 | 18 | -2.28
CCN(C)S(=O)(=O)Nc1cccc(-c2nnsc2Cl)c1 | 11 | -1.56
CCC[C@H](C)N1CC2(CCN(C(=O)c3cccnc3OC)CC2)OC1=O | 4 | -0.76
CC(=O)N1CCC[C@H](c2noc(-c3onc4c3CCCC4)n2)C1 | -1 | 0.14
CO[C@@H](C)CS(=O)(=O)Nc1cnc(C(F)(F)F)nc1 | -3 | 0.4
CN(C)c1ccccc1CN(C)c1cccc(C(=O)O)n1 | -11 | 2.16
CC(CCNC(=O)C1COCCO1)c1cccc(C(F)(F)F)c1 (stereo not drawn) | -1 | 0.11
O=C(NC[C@H]1O[C@@H](CO)[C@@H](O)[C@H]1N1CCCCC1)c1ccccc1 | 28 | -3.14
COC[C@H](NC(=O)c1cn2c(n1)CCC2)c1cccc(Cl)c1 | -2 | 0.3
COCC[C@H]1CN(Cc2ccc(Cl)o2)CCO1 | 5 | -0.71
CCN=C(NCc1noc(C)n1)N(C)Cc1sccc1C | -16 | 1.54
O=C(Cc1ccccc1)N1CCN(c2nc(C3CCC3)nc3ccc(Cl)cc23)CC1 | -12 | 1.39
